# The list shows a part of the results.
# B1: Siglec-9 (Homo sapiens), Q9Y336 (protein)
# chain: MLLLLLPLLWGRERAEGQTSKLLTMQSSVTVQEGLCVHVPCSFSYPSHGWIYPGPVVHGYWFREGANTDQDAPVATNNPARAVWEETRDRFHLLGDPHTKNCTLSIRDARRSDAGRYFFRMEKGSIKWNYKHHRLSVNVTALTHRPNILIPGTLESGCPQNLTCSVPWACEQGTPPMISWIGTSVSPLDPSTTRSSVLTLIPQPQDHGTSLTCQVTFPGASVTTNKTVHLNVSYPPQNLTMTVFQGDGTVSTVLGNGSSLSLPEGQSLRLVCAVDAVDSNPPARLSLSWRGLTLCPSQPSNPGVLELPWVHLRDAAEFTCRAQNPLGSQQVYLNVSLQSKATSGVTQGVVGGAGATALVFLSFCVIFVVVRSCRKKSARPAAGVGDTGIEDANAVRGSASQGPLTEPWAEDSPPDQPPPASARSSVGEGELQYASLSFQMVKPWDSRGQEATDTEYSEIKIHR
# Experiments:
# Assay in all cases: glycan array binding signal (z-score within array); higher = stronger binding
# Settings in all cases: glycan notation: IUPAC condensed, linker removed
# [1] = biological target: Fuc(a1-3)[Gal(b1-4)]GlcNAc(b1-3)Gal(b1-3)[Fuc(a1-4)]GlcNAc
# Procedure, shortened: (§1)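 Glycan array binding is given as a within-array Z-score, which can be read as non-binding when negative. The arrays, 3228 of them, came from the Consortium for Functional Glycomics database and were retained only where the protein sequence was available. Z-scores were averaged across arrays of the same protein sequence at different concentrations or buffers and across linkers.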
# [2] = biological target: Fuc(a1-3)[Gal(b1-4)]GlcNAc(b1-3)Gal(b1-4)[Fuc(a1-3)]GlcNAc
# Procedure, shortened: as §1
# [3] = biological target: Fuc(a1-3)[Gal(b1-4)]GlcNAc(b1-3)Gal(b1-4)[Fuc(a1-3)]GlcNAc(b1-3)Gal(b1-4)[Fuc(a1-3)]GlcNAc
# Procedure, shortened: as §1
# [4] = biological target: Fuc(a1-3)[Gal(b1-4)]GlcNAc(b1-3)GalNAc
# Procedure, shortened: as §1
# [5] = biological target: Fuc(a1-3)[Gal(b1-4)]GlcNAc(b1-6)GalNAc
# Procedure, shortened: as §1
# [6] = biological target: Fuc(a1-3)[Gal(b1-4)]GlcNAc(b1-6)[Gal(b1-3)GlcNAc(b1-3)]Gal(b1-4)Glc
# Procedure, shortened: as §1
# [7] = biological target: Fuc(a1-3)[Gal(b1-4)]GlcNAc6S
# Procedure, shortened: as §1
# [8] = biological target: Fuc(a1-3)[Gal3S(b1-4)]Glc
# Procedure, shortened: as §1
# [9] = biological target: Fuc(a1-3)[Gal3S(b1-4)]GlcNAc
# Procedure, shortened: as §1
# [10] = biological target: Fuc(a1-3)[Gal3S(b1-4)]GlcNAc6S
# Procedure, shortened: as §1
# [11] = biological target: Fuc(a1-3)[GalNAc(b1-4)]GlcNAc
# Procedure, shortened: as §1
# [12] = biological target: Fuc(a1-3)[GalNAc(b1-4)]GlcNAc6S
# Procedure, shortened: as §1
# [13] = biological target: Fuc(a1-4)GlcNAc
# Procedure, shortened: as §1
# [14] = biological target: Fuc(b1-3)GlcNAc
# Procedure, shortened: as §1
# [15] = biological target: Gal(a1-2)Gal
# Procedure, shortened: as §1
# [16] = biological target: Gal(a1-3)Gal
# Procedure, shortened: as §1
# [17] = biological target: Gal(a1-3)Gal(b1-3)GlcNAc
# Procedure, shortened: as §1
# [18] = biological target: Gal(a1-3)Gal(b1-3)GlcNAc(b1-2)Man
# Procedure, shortened: as §1
# [19] = biological target: Gal(a1-3)Gal(b1-3)GlcNAc(b1-2)Man(a1-3)[Gal(a1-3)Gal(b1-3)GlcNAc(b1-2)Man(a1-6)]Man(b1-4)GlcNAc(b1-4)GlcNAc
# Procedure, shortened: as §1
# [20] = biological target: Gal(a1-3)Gal(b1-3)GlcNAc(b1-3)GalNAc
# Procedure, shortened: as §1
# [21] = biological target: Gal(a1-3)Gal(b1-3)GlcNAc(b1-6)GalNAc
# Procedure, shortened: as §1
# [22] = biological target: Gal(a1-3)Gal(b1-3)[Fuc(a1-4)]GlcNAc(b1-2)Man(a1-3)[Gal(a1-3)Gal(b1-3)[Fuc(a1-4)]GlcNAc(b1-2)Man(a1-6)]Man(b1-4)GlcNAc(b1-4)GlcNAc
# Procedure, shortened: as §1
# [23] = biological target: Gal(a1-3)Gal(b1-4)Glc
# Procedure, shortened: as §1
# [24] = biological target: Gal(a1-3)Gal(b1-4)GlcNAc
# Procedure, shortened: as §1
# [25] = biological target: Gal(a1-3)Gal(b1-4)GlcNAc(b1-2)Man
# Procedure, shortened: as §1
# [26] = biological target: Gal(a1-3)Gal(b1-4)GlcNAc(b1-2)Man(a1-3)[Gal(a1-3)Gal(b1-4)GlcNAc(b1-2)Man(a1-6)]Man(b1-4)GlcNAc(b1-4)GlcNAc
# Procedure, shortened: as §1
# [27] = biological target: Gal(a1-3)Gal(b1-4)GlcNAc(b1-3)GalNAc
# Procedure, shortened: as §1
# [28] = biological target: Gal(a1-3)Gal(b1-4)GlcNAc(b1-6)GalNAc
# Procedure, shortened: as §1
# [29] = biological target: Gal(a1-3)Gal(b1-4)[Fuc(a1-3)]GlcNAc
# Procedure, shortened: as §1
# [30] = biological target: Gal(a1-3)Gal(b1-4)[Fuc(a1-3)]GlcNAc(b1-2)Man(a1-3)[Gal(a1-3)Gal(b1-4)[Fuc(a1-3)]GlcNAc(b1-2)Man(a1-6)]Man(b1-4)GlcNAc(b1-4)GlcNAc
# Procedure, shortened: as §1
# [31] = biological target: Gal(a1-3)GalNAc
# Procedure, shortened: as §1
# [32] = biological target: Gal(a1-3)[Gal(a1-4)]Gal(b1-4)GlcNAc
# Procedure, shortened: as §1
# [33] = biological target: Gal(a1-4)Gal(b1-3)GlcNAc(b1-2)Man(a1-3)[Gal(a1-4)Gal(b1-3)GlcNAc(b1-2)Man(a1-6)]Man(b1-4)GlcNAc(b1-4)GlcNAc
# Procedure, shortened: as §1
# [34] = biological target: Gal(a1-4)Gal(b1-4)Glc
# Procedure, shortened: as §1
# [35] = biological target: Gal(a1-4)Gal(b1-4)GlcNAc
# Procedure, shortened: as §1
# [36] = biological target: Gal(a1-4)Gal(b1-4)GlcNAc(b1-2)Man(a1-3)[Gal(a1-4)Gal(b1-4)GlcNAc(b1-2)Man(a1-6)]Man(b1-4)GlcNAc(b1-4)GlcNAc
# Procedure, shortened: as §1
# [37] = biological target: Gal(a1-4)Gal(b1-4)GlcNAc(b1-3)Gal(b1-4)Glc
# Procedure, shortened: as §1
# [38] = biological target: Gal(a1-4)GlcNAc
# Procedure, shortened: as §1
binder,measurement,setting,value
B1,glycan array binding signal (z-score),[1],-0.232
same,glycan array binding signal (z-score),[2],0.166
same,glycan array binding signal (z-score),[3],-0.291
same,glycan array binding signal (z-score),[4],-0.158
same,glycan array binding signal (z-score),[5],-0.063
same,glycan array binding signal (z-score),[6],-0.132
same,glycan array binding signal (z-score),[7],3.1
same,glycan array binding signal (z-score),[8],-0.117
same,glycan array binding signal (z-score),[9],-0.163
same,glycan array binding signal (z-score),[10],-0.041
same,glycan array binding signal (z-score),[11],-0.233
same,glycan array binding signal (z-score),[12],-0.058
same,glycan array binding signal (z-score),[13],0.021
same,glycan array binding signal (z-score),[14],-0.156
same,glycan array binding signal (z-score),[15],-0.148
same,glycan array binding signal (z-score),[16],-0.16
same,glycan array binding signal (z-score),[17],0.425
same,glycan array binding signal (z-score),[18],0.393
same,glycan array binding signal (z-score),[19],-0.086
same,glycan array binding signal (z-score),[20],-0.092
same,glycan array binding signal (z-score),[21],0.105
same,glycan array binding signal (z-score),[22],0.309
same,glycan array binding signal (z-score),[23],-0.257
same,glycan array binding signal (z-score),[24],-0.323
same,glycan array binding signal (z-score),[25],-0.23
same,glycan array binding signal (z-score),[26],-0.047
same,glycan array binding signal (z-score),[27],-0.083
same,glycan array binding signal (z-score),[28],0.048
same,glycan array binding signal (z-score),[29],-0.249
same,glycan array binding signal (z-score),[30],0.041
same,glycan array binding signal (z-score),[31],-0.192
same,glycan array binding signal (z-score),[32],-0.042
same,glycan array binding signal (z-score),[33],-0.185
same,glycan array binding signal (z-score),[34],-0.183
same,glycan array binding signal (z-score),[35],-0.198
same,glycan array binding signal (z-score),[36],0.13
same,glycan array binding signal (z-score),[37],-0.242
same,glycan array binding signal (z-score),[38],-0.162

# From the supplement of paper PMC8728848
